Measured values taken from paper PMC13054468.

Biological target: T1, avidin, P02701
T1 chain: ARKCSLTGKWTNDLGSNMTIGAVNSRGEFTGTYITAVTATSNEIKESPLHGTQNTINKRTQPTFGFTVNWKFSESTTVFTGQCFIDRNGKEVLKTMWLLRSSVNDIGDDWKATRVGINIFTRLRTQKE
Experiment: native MS; modified TIMS-Q-SID-TOF; 200 mM ammonium acetate, with or without charge reduction by 20% (v/v) TEAA; 0.7 to 3 uM per complex; single charge state isolated and fragmented by surface-induced dissociation
Conditions: remark: other sources report otherwise

stoichiometry N: 4
B1: avidin, P02701 25-152 (natural protein)
chain: T1 chain
